Test results: PubChem BioAssay AID1346428 (National Center for Advancing Translational Sciences (NCATS), 2018)
Where “and” joins values, the source holds several entries; their conditions need not be identical. Identical values can stand only once. About 1,200 (2.5%) of roughly 48,000 compounds were called active. Roughly 2% stayed inconclusive and do not appear here.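 Rule for the calls: active = activation of at least 60% and not above a set upper limit (about 1 call in 100 departs from these limits); inconclusive = activation of 40% to 60%, or above that upper limit; inactive = activation under 40%.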 This is one part of the list.

These molecules were tested against Probable G-protein coupled receptor 32 (Homo sapiens) (UniProt O75388) (assay: qHTS for Agonists of Human Resolvin D1 Receptor DRV1). Settings: CHO-K1 GPR32 beta-arrestin PathHunter luminescence, 90 min; at 76.9 µM; hits give high values; zero percent set by DMSO-only wells.
Summary of the method: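 Engineered CHO-K1 line co-expressing GPR32-ProLink and EA-beta-arrestin. Compound treatment lasted 90 min at 37 °C. Luminescence was recorded after 1 h with substrate at ambient temperature, relative to DMSO basal wells.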
Note: 0% is about no effect.

Chain of UniProt O75388 (O75388 whole entry, looked up): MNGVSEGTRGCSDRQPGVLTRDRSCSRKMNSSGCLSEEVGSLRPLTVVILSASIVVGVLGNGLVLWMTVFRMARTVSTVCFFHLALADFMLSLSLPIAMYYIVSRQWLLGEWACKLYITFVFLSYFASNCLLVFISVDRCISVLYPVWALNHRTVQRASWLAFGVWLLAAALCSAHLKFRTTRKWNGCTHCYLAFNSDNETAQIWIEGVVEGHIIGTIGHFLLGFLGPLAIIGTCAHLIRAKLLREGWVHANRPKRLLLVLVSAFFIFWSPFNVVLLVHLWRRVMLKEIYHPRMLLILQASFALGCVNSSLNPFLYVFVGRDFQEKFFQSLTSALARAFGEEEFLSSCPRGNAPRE

SMILES	activation
O=C(OCc1ccccc1)c1ccccc1	inactive: 19.2%
CCOC(=O)c1cccc(NC(=O)C2Cc3ccccc3N2C(=O)c2ccccc2)c1 (stereo not drawn)	inactive: 9.91%
CC1CCN(S(=O)(=O)c2ccc3c(ccn3CCC(=O)NCc3ccccc3F)c2)CC1	inactive: -16.4%
Cc1ccc(Nc2nc3ccccc3c3nncn23)c(Cl)c1	inactive: -1.99%
Cc1ccc(-c2nc(NC(=O)CSc3nc(C)nc4sc5c(c34)CCCC5)ns2)cc1	inactive: -5.8%
Cc1ccccc1CNC(=O)CN1C(=O)C2CCCCN2c2ccc(C(=O)N3CCCC3)cc21 (stereo not drawn)	inactive: -13.9%
CCc1nn(CC(=O)N2CCCCC2)c(=O)c2cc3sc(C)cc3n12	inactive: -9.94%
Cc1ccccc1NC(=O)CCS(=O)(=O)c1cc(Br)cc2c1N(C(=O)C1CC1)CC2	inactive: -3.14%
Cc1ccc(C)c(Cn2c(=O)n(C(C)C)c(=O)c3oc4ccccc4c32)c1	inactive: -3.11%
Cc1cccc(-n2ncc3c(Nc4ccc(C)c(Cl)c4)ncnc32)c1	active: 73.7%
COc1ccc(NC(=O)c2c(-c3ccccc3)c(-c3ccccc3)nn(C)c2=O)cc1OC	inactive: -18.7%
Cc1sc2c(c1C)c(=O)n(Cc1ccccc1)c(=O)n2Cc1ccc(F)cc1	inactive: 1.87%
O=C(Nc1ccc2c(c1)N(C1CCCC1)C(=O)c1ccccc1S2)c1ccccc1F	inactive: -5.69%
O=C(Nc1sc2c(c1C(=O)NCc1cccnc1)CCCC2)c1cc(=O)c2ccccc2o1	inactive: 1.05%
Cc1ccc2nc(COc3ccccc3NC(=O)C(C)(C)C)cc(=O)n2c1	inactive: -1.7%
CCOc1ccc(C2CC(c3c(O)n(C4CCCCC4)c(=O)[nH]c3=O)=Nc3ccccc3S2)cc1 (stereo not drawn)	inactive: -0.318%
COc1cccc(CNC(=O)c2ccc(-c3nc(COc4ccccc4)c(C)o3)cc2)c1	inactive: -2.12%
Cc1ccc(CCNC(=O)c2cc3c(s2)-c2c(C)cccc2OC3)cc1	inactive: -0.0658%
CCOC(=O)N1CCc2c(sc3c2c(=O)n(-c2ccccc2C(F)(F)F)c(=O)n3Cc2ccccc2C)C1	inactive: -22.8%
O=C(Cc1ccc(F)cc1)NCc1ccc2c(c1)CCN2C(=O)c1ccc(F)cc1	inactive: -13.1%
Cc1ccc(NS(=O)(=O)c2ccc(-n3cccn3)cc2)cc1Cl	active: 73.2%

SMILES	activation
O=C(CSc1nnc2ccc3ccccc3n12)Nc1ccccc1Cl	inactive: -9.47%
COc1cccc(-n2c(SCC(=O)Nc3c(C)cc(C)cc3C)nc3c([nH]c4ccccc43)c2=O)c1	inactive: 10.4%
COC(=O)c1cc2oc3ccccc3c2n1CC(=O)Nc1ccc(Cl)cc1F	inactive: 43.5%
COc1cccc2c1cc1c(=O)n(CC(=O)NCc3ccc(C)o3)nc(C)n12	inactive: -18%
O=C(COc1ccc(Cl)cc1)Nc1ccc2nc(SCC(=O)N3CCCC3)sc2c1	inactive: -6.41%
COc1ccc(OC)c(NC(=O)CSc2ccc(-c3sc(C)nc3C)nn2)c1	inactive: 4.27%
Cc1cccc(-c2nc(CCNC(=O)Cc3ccccc3)cs2)c1	inactive: -13%
COc1ccc(CCNC(=O)c2ccc3c(c2)N(Cc2ccc(F)cc2)C(=O)CS3)cc1OC	inactive: -11.3%
Cc1nn(C(=O)c2cccc(Cl)c2)c(C)c1S(=O)(=O)N1CCOCC1	inactive: 6.13%
CCC(=O)N1CCc2cc(S(=O)(=O)NC(CC(C)C)C(=O)NCCc3ccccc3)ccc21 (stereo not drawn)	inactive: -13.3%
COc1ccc(CCNC(=O)C(=O)NCC(c2ccco2)S(=O)(=O)c2cccs2)cc1OC (stereo not drawn)	inactive: -6.03%
O=C(COc1ccccc1-c1nc(-c2ccccc2)no1)Nc1cccc([N+](=O)[O-])c1	inactive: -0.578%
OC(CCN1CCCCC1)(c1ccccc1)C1CCCCC1 (stereo not drawn)	inactive: -3.53% and inactive: -1.68%
O=C(c1nc(-c2ccc(Cl)cc2)n2c1CCCCC2)N1CCN(c2ccccc2)CC1	inactive: -0.801%
CCOC(=O)c1cc(-c2ccc(F)cc2)n(CC(=O)NC2CCCCCC2)c1C	inactive: -13%
Cc1nc2sccn2c(=O)c1S(=O)(=O)Nc1cc(Cl)ccc1O	inactive: -19.9%
CCCCN1CCc2nc(Nc3ccc(OC)cc3OC)ncc2C1	inactive: -2.87%
COc1ccc(NC(=O)c2c(NC(=O)COc3ccccc3)sc3c2CCC(C(C)(C)C)C3)cc1 (stereo not drawn)	inactive: 3.79%
Cc1ccc(CN(Cc2ccco2)C(=O)c2ccc(OCC(C)C)cc2)cc1	inactive: -19.9%
Cc1ccc2c(c1)N(C(=O)N1CCC(C(=O)NCCc3ccc(Cl)cc3)CC1)CC(C)O2 (stereo not drawn)	inactive: -7.6%
Cc1ccc(C)c(N2CCN(C(=O)c3cc4c(=O)n(Cc5ccccc5)ccc4nc3C)CC2)c1	inactive: 1.99%

SMILES	activation
Cc1ccc(-n2nc(C)c3c(C)c(CCC(=O)NCc4ccccc4Cl)c(C)nc32)cc1C	inactive: 4.34%
CCOc1cccc2c1N[C@@H](c1ccc(C(=O)O)cc1)[C@H]1CC=C[C@@H]21	inactive: -11.8%
Cc1cccc(NS(=O)(=O)c2ccc3[nH]c4c(c3c2)CCCCCC4)c1	inactive: 6.31%
COc1ccc(NC(=O)C(Cc2ccccc2)NS(=O)(=O)c2ccc3c(c2)CCC(=O)N3)c(OC)c1 (stereo not drawn)	inactive: 14.4%
Cc1cccc(Cn2cccc2CNS(=O)(=O)c2ccccc2F)c1	inactive: 19.8%
CCc1ccc(CNC(=O)Cn2nc(C)n3c(cc4cc(C)ccc43)c2=O)cc1	inactive: -10.1%
CCc1ccc(NC(=O)CN2C(=O)C(c3ccc(C)cc3)=NC23CCCCC3)cc1	inactive: -24.3%
CCOC(=O)c1cccc(NC(=O)c2cc3ccccn3n2)c1	inactive: 13.4%
COc1ccc2sc(N(Cc3cccnc3)C(=O)C3CCCCC3)nc2c1	inactive: -29.4%
O=C(Cn1c(=O)n(CC2CCC(C(=O)NCCc3ccccc3)CC2)c(=O)c2ccccc21)Nc1ccccc1 (stereo not drawn)	inactive: 0.0094%
CCCCOc1ccc(C2=NC(c3ccncc3)=Nc3ccc(OCC)cc3N2)cc1	inactive: -10.7%
CCOc1ccccc1CNC(=O)C1CCN(c2nnc(-n3c(C)ccc3C)s2)CC1	inactive: -27.9%
Cc1cc(C)n2nc(CNS(=O)(=O)c3ccc(C)c(C)c3)nc2n1	inactive: -3.66%
CC(C)OCCCn1c(SCC(=O)c2ccccc2)nc2c(sc3ccccc32)c1=O	inactive: -9.33%
Cc1ccc2c(Cl)cc(Cl)c(O)c2n1	inactive: -29.4%
Cc1nn(-c2ccc(F)cc2)c(-n2cccc2)c1C(=O)NCCc1ccc(Cl)cc1	inactive: -21.1%
CCN(CC)CCOC(=O)c1ccc(NC(=O)Cn2ncc3c2-c2cc(C)ccc2OC3)cc1	inactive: 2.74%
O=C(C1CCN(S(=O)(=O)c2cccc3nonc23)CC1)N1CCN(c2cccc(Cl)c2)CC1	inactive: -5.08%
COc1ccc(NC(=O)CSc2nc3nc(C)c(Cc4ccccc4)c(C)n3n2)cc1OC	inactive: -1.46%
Cc1ccc(Cn2c(=O)c3ccccc3n3c(-c4cccc(O)c4)nnc23)cc1	inactive: -4.89%
CC(C)COc1ccc(C(=O)Nc2cc(-c3ccccc3)no2)cc1	inactive: 11.4%

SMILES	activation
O=C(Cn1cnc2ccccc2c1=O)NCCC(=O)Nc1ccc(F)cc1	inactive: -1.25%
COc1cccc(N2CCN(S(=O)(=O)c3cc(-c4cc(C)no4)ccc3C)CC2)c1	inactive: 3.63%
CCCCN(CC)CCCNC(=O)Cn1ncc2c([nH]c3ccc(C)cc32)c1=O	inactive: 8.78%
O=c1c2cn[nH]c2nc(SCc2c(F)cccc2F)n1-c1ccc(Cl)cc1	inactive: -20.3%
CCCCN1C(=O)C(O)(CC(=O)c2ccc(C)cc2C)c2cc(Br)ccc21 (stereo not drawn)	inactive: -3.71%
O=C(NCc1ccco1)c1ccc2c(c1)N(Cc1ccc(F)cc1)C(=O)c1ccccc1S2(=O)=O	inactive: -32.3%
CCOc1cccc(C(=O)Nc2nc3c(s2)CC(C(C)(C)C)CC3)c1 (stereo not drawn)	inactive: -11.9%
COc1ccc(N(CC(=O)N2CCN(c3ccc(F)cc3)CC2)S(=O)(=O)c2c(C)noc2C)cc1	inactive: -7.36%
COc1cccc(CNC(=O)c2cc(Sc3cccc(Cl)c3)nc3ccccc23)c1	inactive: -3.09%
Cc1ccc(/C=C/C(=O)Nc2ccccc2C(N)=O)o1	inactive: 17.5%
COc1cc(OC)cc(-c2nc3n(n2)C(c2ccccc2)C(C(N)=O)=C(C)N3)c1 (stereo not drawn)	inactive: -5.43%
CC(=O)N1c2ccc(S(=O)(=O)Nc3ccc(Cl)cc3C)cc2CC1C (stereo not drawn)	inactive: -1.79%
COc1ccccc1NC(=O)COc1ccc(-c2nn(C)c(=O)c3ccccc23)cc1	active: 95.1%
Cc1c(C(=O)N2CCOCC2)oc2c1-c1nn(CC(=O)NCc3cccc(Cl)c3)cc1CC2	inactive: -3.51%
Cc1sc(-c2cc3c([nH]c2=O)CC(c2ccccc2)CC3=O)nc1-c1ccc(Cl)cc1 (stereo not drawn)	inactive: 37.9%
CCOC(=O)c1c(NC(=O)COc2cccc(C)c2C)sc2c1CCC(CC)C2 (stereo not drawn)	inactive: 6.2%
Cn1c(=O)oc2cc(S(=O)(=O)N3CCC(C(=O)N4CCN(c5ccccc5F)CC4)CC3)ccc21	inactive: 0.958%
COc1cc(Cl)c(C)cc1NC(=O)CC(c1ccc(F)cc1)N1Cc2ccccc2C1=O (stereo not drawn)	inactive: -16.7%
CC(C)(C)OC(=O)N1CCC(c2c(C(=O)NCCc3ccccc3)cnn2-c2ccc(F)cc2F)CC1	inactive: -29.6%
Cc1ccc(CCNC(=O)c2c(C)oc3ncn(CC(C)C)c(=O)c23)cc1	inactive: -4.76%
